Source: the supplement of paper PMC4967469
The IC50 comes from the fitted curve, where viability falls to half of the control; a limit (>, <) means that the fit lies beyond the doses tested. AUC is the area under the same curve over the 256-fold range up to the top dose, as a fraction: 1 means no effect, lower means more sensitive. For some assays here: The top dose, if marked as inferred, comes from the curve model; the source does not state it. For some assays here: Drugs with an entry number were screened twice under separate entries, and the two screens often disagree.

How the values were obtained:
Assay in all cases: Viability of human cancer cell lines after 72 h of drug (GDSC screen)
[1] = compound: CC(C)c1ccccc1Cc1cc(C(=O)Nc2ccc(S(=O)(=O)c3ccccc3C(C)(C)C)cc2)c(O)c(O)c1O [TW-37]; settings: top dose 5 µM
Experimental: (§1)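 Human cancer cell lines in 384-well plates, medium with 10% serum, drug for 72 h over a 256-fold dose range (nine 2-fold or five 4-fold steps up to the top dose). Adherent lines were fixed and stained with the nucleic acid dye Syto60, suspension lines read with resazurin; signal relative to control wells, capped at 0 and 100%. One two-parameter sigmoid per drug and line, fitted in a mixed model over all curves with the slope shared within a line.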

[2] = compound: Cc1cn(-c2cc(NC(=O)c3ccc(C)c(Nc4nccc(-c5cccnc5)n4)c3)cc(C(F)(F)F)c2)cn1 [Nilotinib]; settings: top dose 2 µM
Experimental: as §1

[3] = compound: CC(O)(CS(=O)(=O)c1ccc(F)cc1)C(=O)Nc1ccc(C#N)c(C(F)(F)F)c1 [Bicalutamide]; settings: top dose 10 µM; screen: GDSC drug entry 1502; top dose inferred
Experimental: as §1

[4] = compound: Cc1ccc(Nc2cc(-c3cccc(N4C(=O)c5ccccc5C4=O)c3)ncn2)cc1NS(C)(=O)=O [KIN001-270]; settings: top dose 20 µM; top dose inferred
Experimental: as §1

[5] = compound: O=S(=O)(c1ccccc1)N(CC(F)(F)F)c1ccc(C(O)(C(F)(F)F)C(F)(F)F)cc1 [T0901317]; settings: top dose 10.24 µM; top dose inferred
Experimental: as §1

[6] = compound: S=C(NCc1ccc2c(c1)OCO2)N1CCN(c2ncnc3c2oc2ccccc23)CC1 [MP470]; settings: top dose 20 µM; top dose inferred
Experimental: as §1

Cell Line | AUC [1] | IC50 [1] [nM] | AUC [2] | IC50 [2] [nM] | AUC [3] | IC50 [3] [nM] | AUC [4] | IC50 [4] [nM] | AUC [5] | IC50 [5] [nM] | AUC [6] | IC50 [6] [nM]
ZR-75-30 (breast, adherent) | 0.714 | 1750 | 0.983 | > 2000 |  |  |  |  |  |  |  | 
PWR-1E (prostate, adherent) | 0.37 | 137 | 0.984 | > 2000 | 0.983 | > 10000 |  |  |  |  |  | 
Jurkat (T-cell leukaemia, suspension) | 0.632 | 672 | 0.992 | > 2000 | 0.985 | > 10000 |  |  |  |  |  | 
NCI-H1341 (small cell lung carcinoma, suspension) | 0.571 | 474 | 0.992 | > 2000 | 0.984 | > 10000 |  |  |  |  |  | 
SUP-B8 (B-cell leukaemia, suspension) | 0.8 | 2390 | 0.989 | > 2000 | 0.982 | > 10000 |  |  |  |  |  | 
JEKO-1 (B-cell lymphoma, suspension) | 0.416 | 186 | 0.928 | > 2000 | 0.984 | > 10000 |  |  |  |  |  | 
CRO-AP2 (B-cell lymphoma, suspension) | 0.538 | 390 | 0.927 | > 2000 | 0.982 | > 10000 |  |  |  |  |  | 
NCI-H835 (lung carcinoid, suspension) | 0.667 | 890 | 0.97 | > 2000 | 0.973 | > 10000 |  |  |  |  |  | 
MOLT-16 (T-cell lymphoblastic leukaemia, suspension) | 0.387 | 163 | 0.966 | > 2000 | 0.974 | > 10000 |  |  |  |  |  | 
OCI-LY7 (B-cell lymphoma, suspension) | 0.34 | 128 | 0.886 | 1150 |  |  |  |  |  |  |  | 
BALL-1 (B-cell leukaemia, suspension) | 0.511 | 332 | 0.996 | > 2000 | 0.987 | > 10000 |  |  |  |  |  | 
MKN7 (stomach, adherent) | 0.849 | > 5000 | 0.975 | > 2000 | 0.981 | > 10000 |  |  |  |  |  | 
U-266 (myeloma, semi-adherent) |  |  | 0.975 | > 2000 | 0.974 | > 10000 |  |  |  |  |  | 
RCH-ACV (B-cell leukaemia, suspension) | 0.574 | 478 | 0.941 | > 2000 | 0.976 | > 10000 |  |  |  |  |  | 
NCI-H929 (myeloma, suspension) | 0.667 | 840 | 0.893 | 1760 | 0.984 | > 10000 |  |  |  |  |  | 
CL-34 (large intestine, adherent) | 0.975 | > 5000 | 0.978 | > 2000 | 0.985 | > 10000 |  |  |  |  |  | 

Cell Line | AUC [1] | IC50 [1] [nM] | AUC [2] | IC50 [2] [nM] | AUC [3] | IC50 [3] [nM] | AUC [4] | IC50 [4] [nM] | AUC [5] | IC50 [5] [nM] | AUC [6] | IC50 [6] [nM]
JHOS-4 (ovary, adherent) | 0.523 | 371 | 0.979 | > 2000 | 0.935 | > 10000 |  |  |  |  |  | 
NCC010 (kidney, adherent) | 0.376 | 138 | 0.986 | > 2000 | 0.954 | > 10000 |  |  |  |  |  | 
RH-18 (rhabdomyosarcoma, adherent) | 0.67 | 1000 | 0.977 | > 2000 | 0.979 | > 10000 |  |  |  |  |  | 
NCI-N87 (stomach, adherent) | 0.771 | 2830 | 0.93 | > 2000 | 0.973 | > 10000 |  |  |  |  |  | 
EW-22 (Ewing sarcoma, adherent) | 0.502 | 316 | 0.987 | > 2000 | 0.978 | > 10000 |  |  |  |  |  | 
NCI-H508 (large intestine, semi-adherent) | 0.934 | > 5000 | 0.975 | > 2000 | 0.972 | > 10000 |  |  |  |  |  | 
CML-T1 (chronic myeloid leukaemia, suspension) | 0.481 | 279 | 0.068 | < 7.81 | 0.966 | > 10000 |  |  |  |  |  | 
ESO51 (oesophagus, semi-adherent) |  |  | 0.843 | > 2000 | 0.964 | > 10000 | 0.957 | > 20000 | 0.952 | > 10200 | 0.894 | > 20000
DIFI (large intestine, adherent) | 0.866 | 4770 | 0.987 | > 2000 | 0.986 | > 10000 |  |  |  |  |  | 
CL-40 (large intestine, adherent) | 0.803 | 4920 | 0.955 | > 2000 | 0.96 | > 10000 |  |  |  |  |  | 
MHH-CALL-2 (B-cell leukaemia, suspension) | 0.619 | 609 | 0.997 | > 2000 | 0.99 | > 10000 |  |  |  |  |  | 
SK-GT-2 (stomach, adherent) | 0.598 | 589 | 0.974 | > 2000 | 0.968 | > 10000 |  |  |  |  |  | 
IGROV-1 (ovary, adherent) | 0.595 | 641 | 0.976 | > 2000 | 0.947 | > 10000 |  |  |  |  |  | 
MM1S (myeloma, suspension) | 0.609 | 614 | 0.959 | > 2000 |  |  |  |  |  |  |  | 
KNS-62 (lung squamous cell carcinoma, adherent) | 0.601 | 670 | 0.961 | > 2000 | 0.943 | > 10000 |  |  |  |  |  | 
